Data from PubChem BioAssay AID588453 (National Center for Advancing Translational Sciences (NCATS), 2011).
The campaign covered roughly 390,000 compounds. About 4,000 (1%) were called active. The shares of active, inactive and inconclusive entries below differ from those in the screen. The call rests on the fitted dose curve; in most records, active means well fitted inhibition curve with a large enough effect; inconclusive means small, poorly fitted or top-dose-only effect; inactive means no such curve, though single readings can be large or run the other way. Potencies of inconclusive entries are doubtful fits and often do not repeat.

Biological target: Thioredoxin reductase 1, cytoplasmic (Rattus norvegicus) (UniProt O89049)
Assay: qHTS Assay for Inhibitors of Mammalian Selenoprotein Thioredoxin Reductase 1 (TrxR1): qHTS; further: nearly all actives have a fitted effect of over 65% in size
Settings: recombinant rTrxR1, NADPH fluorescence consumption, selenite substrate; series mostly up to 114 µM; activity change, negative = inhibition: at the top concentration
Excerpt: The selenoprotein thioredoxin reductase (TrxR; EC 1.8.1.9) is a FAD containing homodimeric pyridine nucleotide-disulfide oxidoreductase with many cellular roles. Together with NADPH and its prime substrate thioredoxin (Trx), the enzyme forms the core of the Trx system. The mammalian Trx system exerts a wide spectrum of functions including redox regulation, antioxidant defense, regulation of transcription factors as well as support of cell growth and replication. Many of these functions involve the reduction of Trx, which may subsequently reduce a number of different substrates including ribonucleotide reductase, peroxiredoxins or NFkB. Mammalian TrxR itself also has a broad substrate specificity, reducing both protein and non-protein substrates, including low molecular weight compounds such as dehydroascorbate, lipoic acid, ubiquinone, and juglone. In addition, several drugs in clinical use for anticancer treatment are indeed known to target TrxR1.
This BioAssay is a validation of an NADPH fluorescence-based, dual-purpose qHTS rTrxR1 assay designed to find potential inhibitors and substrates of rTrxR1. For this particular BioAssay, actives are potential inhibitors. See related BioAssay for substrate data deposition.
NIH Molecular Libraries Probe Production Network [MLPCN]
NIH Chemical Genomics Center [NCGC]
Assay Provider: Elias Arner, Karolinska Institute
Assay protocol: 2 uL of reagents (buffer in column 4 as negative control and 90 nM rTrxR1 in columns 1-3 and 5-48) were dispensed into Greiner black solid-bottom 1,536-well assay plates, followed by 1 uL of NADPH (400 uM final concentration) to each well. The plates were centrifuged at 1000 rpm for 15 seconds and subsequently incubated for 5 min at room temperature (~22 deg C) to allow for rTrxR1 reduction. Compounds (23 nL) were then transferred via Kalypsys pin tool equipped with 1536-pin array (10 nL slotted pins, V&P Scientific, San Diego, CA). In addition, a duplicate 2-fold serial dilution of the control compounds auranofin, a known gold-based TrxR1 inhibitor, and juglone (5-hydroxy-1,4-naphthoquinone), a natural TrxR1 substrate, were pin-transferred to columns 2 and 3, respectively. After incubation for 15 min at room temperature (~22 deg C), 1 uL of selenite (400 uM final concentration) were dispensed to each well. The plate was immediately transferred to a ViewLux high-throughput CCD imager (PerkinElmer), wherein kinetic measurements of NADPH fluorescence (Ex 340 nm, Em 450 nm) were acquired (8 minute kinetic read, see Table 1). Read 1 was utilized to assess the capacity of a compound to serve as an rTrxR1 substrate, i.e. a decrease in NADPH fluorescence compared to the no-compound background is an indication of a substrate behavior for that particular compound. For inhibitory activity of a compound, delta values, computed as the difference in fluorescence intensity between the first and last reads of an 8-minute time kinetic window, were used. All reagents were diluted in an assay buffer consisting of 50 mM Tris-HCl, pH 7.5, 2 mM EDTA, and 0.01% Tween-20.
Throughout the screen, reagent bottle and all liquid lines were made light-tight to minimize reagent degradation. All screening operations were performed on a fully integrated robotic system (Kalypsys, San Diego, CA) containing one RX-130 and two RX-90 anthropomorphic robotic arms (Staubli, Duncan, SC). Library plates were screened starting from the lowest and proceeding to the highest concentration, and a 'double-pinning' step of the highest concentration was required to access higher concentrations of compounds. Vehicle-only plates, with DMSO being pin-transferred to the columns 5-48, were inserted uniformly at the beginning and the end of each library in order to monitor and record any shifts in the background, which can be affected by reagent dispensers or loss in enzyme activity over time. […]
On the % scale 0 is the no-effect control and ±100 the full control effect; potency means the concentration at half of the fitted maximal effect; tags describe the fitted curve by direction and shape.

Chain of UniProt O89049 (O89049 whole entry, looked up): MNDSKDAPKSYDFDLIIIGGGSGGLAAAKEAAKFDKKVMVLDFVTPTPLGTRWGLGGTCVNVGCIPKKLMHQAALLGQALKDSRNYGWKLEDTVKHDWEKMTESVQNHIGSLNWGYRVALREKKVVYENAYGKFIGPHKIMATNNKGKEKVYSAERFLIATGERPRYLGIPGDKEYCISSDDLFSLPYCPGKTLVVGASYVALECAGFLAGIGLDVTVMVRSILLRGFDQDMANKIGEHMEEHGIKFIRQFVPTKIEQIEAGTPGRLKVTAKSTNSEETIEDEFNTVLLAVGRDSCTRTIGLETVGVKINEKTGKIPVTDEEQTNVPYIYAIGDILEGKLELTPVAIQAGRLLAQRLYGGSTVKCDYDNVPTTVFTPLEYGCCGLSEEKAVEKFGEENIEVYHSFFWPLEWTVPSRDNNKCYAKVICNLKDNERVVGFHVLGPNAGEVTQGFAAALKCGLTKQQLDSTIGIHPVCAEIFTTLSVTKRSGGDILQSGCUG

SMILES	Potency	activity change, negative = inhibition
S=c1[nH]cnc2sc(Nc3ccccc3)nc12	inconclusive: 14.1 µM [inhibitor, full curve, poor fit]	–
N#Cc1nc(-c2ccccc2)oc1N1CCC(C(N)=O)CC1	inconclusive: 31.6 µM [inhibitor, single point]	–
CCOc1ccc(/C=C/C(=O)c2ccccc2)cc1OC	inconclusive: 79.4 µM [inhibitor, single point]	–
Cc1ccc2nc(-c3ccc(N=Nc4cc(S(=O)(=O)O)c5ccccc5c4O)cc3)sc2c1S(=O)(=O)O	inconclusive: 56.2 µM [inhibitor, partial curve]	–
Clc1ccccc1Cn1nnc2c(NCC3CC3)ncnc21	–	inactive: 21.9%
CN1CCc2cc(O)c(O)cc2C(c2ccccc2)C1 (stereo not given)	inconclusive: 16.8 µM [inhibitor, partial curve, poor fit]	–
Cc1ccc(-c2nc(CS(=O)CC(=O)NCc3ccc(Cl)cc3)c(C)o2)cc1 (stereo not given)	–	inactive: -9.98% [at 57.1 µM]
Cc1c(CCNC=O)cc(C)c2c3c(oc12)CCCC3	inconclusive: 89.1 µM [inhibitor, single point]	–
CC(=O)C1=C(O)C(=O)N(CCNCCO)C1c1ccccc1 (stereo not given)	–	inactive: -25%
COc1cc(/C=C2\SC(=Nc3c(C)n(C)n(-c4ccccc4)c3=O)NC2=O)ccc1O	inconclusive: 70.8 µM [inhibitor, partial curve, poor fit]	–
O=C(NC1CC1)c1sc2cc([N+](=O)[O-])ccc2c1Cl	inconclusive: 79.4 µM [inhibitor, single point]	–
O=C(NCC1CCCO1)c1nn2c(C(F)(F)F)cc(-c3ccc(Br)o3)nc2c1Br (stereo not given)	active: 14.1 µM	–
COc1ccc(CCNC(=O)COC(=O)CCC(=O)c2cccs2)cc1OC	inconclusive: 89.1 µM [inhibitor, partial curve, poor fit]	–
CC1CCc2sc(C(=O)N3CCN(c4ncccn4)CC3)cc2C1 (stereo not given)	inconclusive: 79.4 µM [inhibitor, single point]	–
NC(=O)c1nn(-c2ccccc2)nc1N	inconclusive: 63.1 µM [inhibitor, single point]	–
CCOc1ccc(-c2nc(SC(C(C)=O)C(=O)N(C)C)c3c(=O)n(C)c(=O)n(C)c3n2)cc1 (stereo not given)	–	inactive: 16% [at 57.1 µM]
Cc1c(Cl)cccc1-n1ncc(C(=O)Nc2ccc3c(c2)OCCO3)c1C1CCN(C(=O)OC(C)(C)C)CC1	–	inactive: 21.8%
O=C(C[N+]12CCCc3cccc(c31)CCC2)c1ccc2ccc3cccc4ccc1c2c34	inconclusive: 50.1 µM [inhibitor, partial curve]	–
O=C(C[n+]1c2ccccc2cc2ccccc21)c1ccc(F)cc1	–	inactive: -23.8%
COc1ccc(C(=O)N/N=C/C(Br)=C/c2ccccc2)cc1	–	inactive: -15.6%
CCCNC(=O)N1CCN(Cc2ccco2)CC1	inconclusive: 89.1 µM [inhibitor, partial curve, poor fit]	–
O=C(CCNC(=O)Cn1ccc2ccccc2c1=O)NCCN1CCN(c2cccc(Cl)c2)CC1	inconclusive: 89.1 µM [inhibitor, single point]	–
Cc1cccc(NC(=S)Nc2cccc(C(F)(F)F)c2)n1	inconclusive: 3.55 µM [inhibitor, partial curve]	–
CC(C)c1ccc(/C=C(\c2nc3ccccc3[nH]2)S(=O)(=O)c2ccccc2)cc1	inconclusive: 17.8 µM [inhibitor, single point]	–

SMILES	Potency	activity change, negative = inhibition
CO[C@H]1/C=C\O[C@@]2(C)Oc3c(C)c(O)c4c(O)c(c(C=NN5CCN(C6CCCC6)CC5)c(O)c4c3C2=O)NC(=O)C(C)=CC=C[C@H](C)[C@H](O)[C@@H](C)[C@@H](O)[C@@H](C)[C@H](OC(C)=O)[C@H]1C	–	inactive: -16.6%
COC(=O)CCC(=O)Nc1cccc([N+](=O)[O-])c1	–	inactive: 7.45%
COc1ccccc1CNC(=O)COc1cccnc1[N+](=O)[O-]	–	inactive: -7.77%
Fc1cccc(Cl)c1Cn1nnc2c(NCc3ccccn3)ncnc21	–	inactive: -1.5%
CCOc1ccccc1Nc1nc(N)nc(CSc2nccc(C)n2)n1	inconclusive: 79.4 µM [inhibitor, single point]	–
O=C(CNS(=O)(=O)c1cccc2nonc12)NCc1ccc(F)cc1	inconclusive: 17.8 µM [inhibitor, partial curve, poor fit]	–
Cc1[nH]c2ccccc2c1N=Nc1ccccc1C(=O)O	inconclusive: 50.1 µM [inhibitor, partial curve, poor fit]	–
COc1ccc2cc(C(=O)NCc3ccco3)c(=Nc3ccc(C(=O)O)cc3)oc2c1	inconclusive: 89.1 µM [inhibitor, single point]	–
O=C(CC(Nc1ccccc1)C(=O)O)c1ccccc1 (stereo not given)	inconclusive: 2.82 µM [inhibitor, partial curve]	–
CCOc1ccccc1NC(=O)C1CCN(S(=O)(=O)c2c(C)noc2/C=C/c2ccc(C)cc2)CC1	–	inactive: 27.9% [at 57.1 µM]
COc1ccc(NC(=O)CSC2CC(=O)N(c3ccc4c(c3)OCCO4)C2=O)cc1 (stereo not given)	–	inactive: -21.2%
Cn1c(=O)c2c(nc(SCCN3CCCCC3)n2Cc2ccc(Cl)cc2)n(C)c1=O	inconclusive: 25.1 µM [inhibitor, single point]	–
CCC[C@H]1CC(=O)C=C(c2ccc(OC)cc2)ON1C(=O)OC(C)(C)C	inconclusive: 22.4 µM [inhibitor, full curve]	–
COc1ccccc1-c1nc(-c2ccc(Br)o2)no1	inconclusive: 89.1 µM [inhibitor, single point]	–
Cc1ccc(NC(=O)CN(C)C(=O)Cc2ccc(Cl)cc2Cl)cc1	–	inactive: -3.67%
COc1ccc2c(c1)CCc1c(C(=O)NCC(C)C)noc1-2	inconclusive: 56.2 µM [inhibitor, partial curve, poor fit]	–
CC1(C)CCC(C)(C)NC(=S)N1	inconclusive: 35.5 µM [inhibitor, partial curve]	–
S=c1[nH]nc(CSCCOc2ccc(Cl)cc2Cl)o1	–	inactive: 6.74%
COc1cccc(-c2nc(-c3ccc(-c4ccccc4)nc3OC)no2)c1	–	inactive: -23.9%
CCOC(=O)C1CCN(C(c2ccccc2OC)c2c(O)cc(C)n(CCOC)c2=O)CC1 (stereo not given)	inconclusive: 14.1 µM [inhibitor, partial curve]	–
Cc1oc2c(CN3CCCC3)c(O)ccc2c(=O)c1-c1ccc(Cl)cc1	inconclusive: 100 µM [inhibitor, single point]	–
O=C1/C(=C/c2ccccn2)COc2ccccc21	active: 22.4 µM	–
CC(OC(=O)CSc1ccc([N+](=O)[O-])cc1)C(=O)NCc1ccco1 (stereo not given)	inconclusive: 25.1 µM [inhibitor, partial curve, poor fit]	–
C#CCOCCOCCOCCNc1nc(N2CCN(C(=O)[C@H](CCCCN)n3cc(C(N)CC(C)C)nn3)CC2)nc(N2CCN(C(=O)[C@H](CCC(=O)O)n3cc(C(N)[C@H](C)CC)nn3)CC2)n1 (stereo not given in full)	active: 17.8 µM	–

SMILES	Potency	activity change, negative = inhibition
CN(O)/C=C1\C(=O)Nc2ccccc21	inconclusive: 89.1 µM [inhibitor, single point]	–
CC(Oc1ccccc1)C(=O)Nc1nnc(S(=O)(=O)Nc2ccccc2)s1 (stereo not given)	–	inactive: 2.54%
S=c1nc[nH]c2c1ncn2-c1ccc(Cl)cc1	–	inactive: -30.9%
Cc1ccc(NC(=O)N2CCCN(Cc3ccc(F)cc3)C2)cc1C	–	inactive: -3.08%
O=C(/C=C/N1CCOCC1)c1coc2ccccc12	inconclusive: 70.8 µM [inhibitor, single point]	–
OCCC1CN(Cc2ccc3cc(Cl)ccc3n2)CCN1Cc1ccsc1 (stereo not given)	inconclusive: 89.1 µM [inhibitor, partial curve, poor fit]	–
Cc1ccc2nc(N3C(=O)C(O)=C(C(=O)c4ccco4)C3c3ccc(C)o3)sc2c1 (stereo not given)	inconclusive: 56.2 µM [inhibitor, partial curve]	–
CCc1cccc(C)c1NC(=O)c1cccc(N(C)C)c1	–	inactive: 30.1% [at 57.1 µM]
CCc1ccc(-c2nc3ccc(Br)cc3c(C(=O)O)c2C)s1	inconclusive: 14.1 µM [inhibitor, full curve]	–
O=C(NC(=S)Nc1cc(C(F)(F)F)ccc1Cl)c1ccccc1	–	inactive: -4.51%
CCN(CC)S(=O)(=O)c1ccc(C(=O)Nc2nnc(NC(=S)Nc3ccccc3)s2)cc1	inconclusive: 39.8 µM [inhibitor, partial curve]	–
Cc1oc(-c2ccccc2F)nc1CS(=O)CC(=O)NCc1ccc(Cl)cc1 (stereo not given)	inconclusive: 35.5 µM [inhibitor, partial curve]	–
O=S(=O)(Nc1ccc(Cl)cc1NS(=O)(=O)c1ccccc1)c1ccccc1	–	inactive: 9.03% [at 2.29 µM]
COc1ccc2nc(N3CCCC(O)C3)c(C#N)cc2c1 (stereo not given)	inconclusive: 39.8 µM [inhibitor, single point]	–
CCCC(NC(=O)CCc1c(C)c2cc3c(-c4ccccc4)coc3cc2oc1=O)C(=O)O (stereo not given)	–	inactive: -8.45%
COc1cc(NC(=O)CCS(=O)(=O)c2nc(-c3cccs3)cc(C(F)(F)F)n2)cc(OC)c1OC	inconclusive: 35.5 µM [inhibitor, partial curve]	–
C=CCNC(=S)Nc1ccc(Br)cc1F	inconclusive: 89.1 µM [inhibitor, single point]	–
CSc1nsc(NC(=O)OCc2ccc(Cl)cc2)n1	–	inactive: 33.6%
Cc1ccc(S(=O)(=O)/N=C2\C=C(Nc3cccc(C(=O)O)c3)C(=O)c3ccccc32)c(C)c1	–	inactive: -15.6%
CCc1ccc(OCC(=O)N/N=C\c2ccco2)c([N+](=O)[O-])c1	inconclusive: 44.7 µM [inhibitor, partial curve]	–
O=C(O)COc1ccc(/C=C/c2nc3ccc([N+](=O)[O-])cc3s2)cc1	inconclusive: 100 µM [inhibitor, single point]	–
CCCCNc1nc(Oc2ccc(=O)n(C)n2)nc(N(C)C)n1	–	inactive: 15%
